Some of the results follow. Binding of human transcription factors and regulators to the viral nucleoprotein by AlphaScreen, crude cell-free proteins, amounts not normalised, one pass. Fold of the Venus control; higher = more signal. No active / inactive call. Single-pass screen; sequences are the whole Swiss-Prot entries looked up by name.

To fix the notation:
B1: NFKB2, Q00653 (protein)
chain: MESCYNPGLDGIIEYDDFKLNSSIVEPKEPAPETADGPYLVIVEQPKQRGFRFRYGCEGPSHGGLPGASSEKGRKTYPTVKICNYEGPAKIEVDLVTHSDPPRAHAHSLVGKQCSELGICAVSVGPKDMTAQFNNLGVLHVTKKNMMGTMIQKLQRQRLRSRPQGLTEAEQRELEQEAKELKKVMDLSIVRLRFSAFLRASDGSFSLPLKPVISQPIHDSKSPGASNLKISRMDKTAGSVRGGDEVYLLCDKVQKDDIEVRFYEDDENGWQAFGDFSPTDVHKQYAIVFRTPPYHKMKIERPVTVFLQLKRKRGGDVSDSKQFTYYPLVEDKEEVQRKRRKALPTFSQPFGGGSHMGGGSGGAAGGYGGAGGGGSLGFFPSSLAYSPYQSGAGPMGCYPGGGGGAQMAATVPSRDSGEEAAEPSAPSRTPQCEPQAPEMLQRAREYNARLFGLAQRSARALLDYGVTADARALLAGQRHLLTAQDENGDTPLHLAIIHGQTSVIEQIVYVIHHAQDLGVVNLTNHLHQTPLHLAVITGQTSVVSFLLRVGADPALLDRHGDSAMHLALRAGAGAPELLRALLQSGAPAVPQLLHMPDFEGLYPVHLAVRARSPECLDLLVDSGAEVEATERQGGRTALHLATEMEELGLVTHLVTKLRANVNARTFAGNTPLHLAAGLGYPTLTRLLLKAGADIHAENEEPLCPLPSPPTSDSDSDSEGPEKDTRSSFRGHTPLDLTCSTKVKTLLLNAAQNTMEPPLTPPSPAGPGLSLGDTALQNLEQLLDGPEAQGSWAELAERLGLRSLVDTYRQTTSPSGSLLRSYELAGGDLAGLLEALSDMGLEEGVRLLRGPETRDKLPSTAEVKEDSAYGSQSVEQEAEKLGPPPEPPGGLCHGHPQPQVH
B2: HSFY1, Q96LI6 (protein)
chain: MAHVSSETQDVSPKDELTASEASTRSPLCEHTFPGDSDLRSMIEEHAFQVLSQGSLLESPSYTVCVSEPDKDDDFLSLNFPRKLWKIVESDQFKSISWDENGTCIVINEELFKKEILETKAPYRIFQTDAIKSFVRQLNLYGFSKIQQNFQRSAFLATFLSEEKESSVLSKLKFYYNPNFKRGYPQLLVRVKRRIGVKNASPISTLFNEDFNKKHFRAGANMENHNSALAAEASEESLFSASKNLNMPLTRESSVRQIIANSSVPIRSGFPPPSPSTSVGPSEQIATDQHAILNQLTTIHMHSHSTYMQARGHIVNFITTTTSQYHIISPLQNGYFGLTVEPSAVPTRYPLVSVNEAPYRNMLPAGNPWLQMPTIADRSAAPHSRLALQPSPLDKYHPNYN
B3: POU3F4, P49335 (protein)
chain: MATAASNPYSILSSTSLVHADSAGMQQGSPFRNPQKLLQSDYLQGVPSNGHPLGHHWVTSLSDGGPWSSTLATSPLDQQDVKPGREDLQLGAIIHHRSPHVAHHSPHTNHPNAWGASPAPNPSITSSGQPLNVYSQPGFTVSGMLEHGGLTPPPAAASAQSLHPVLREPPDHGELGSHHCQDHSDEETPTSDELEQFAKQFKQRRIKLGFTQADVGLALGTLYGNVFSQTTICRFEGLQLSFKNMCKLKPLLNKWLEEADSSTGSPTSIDKIAAQGRKRKKRTSIEVSVKGVLETHFLKCPKPAAQEISSLADSLQLEKEVVRVWFCNRRQKEKRMTPPGDQQPHEVYSHTVKTDTSCHDL
B4: HMGA1, P17096 (protein)
chain: MSESSSKSSQPLASKQEKDGTEKRGRGRPRKQPPVSPGTALVGSQKEPSEVPTPKRPRGRPKGSKNKGAAKTRKTTTTPGRKPRGRPKKLEKEEEEGISQESSEEEQ
B5: ZNF322, Q6U7Q0 (protein)
chain: MYTSEEKCNQRTQKRKIYNVCPRKGKKIFIHMHEIIQIDGHIYQCLECKQNFCENLALIMCERTHTGEKPYKCDMCEKTFVQSSDLTSHQRIHNYEKPYKCSKCEKSFWHHLALSGHQRTHAGKKFYTCDICGKNFGQSSDLLVHQRSHTGEKPYLCSECDKCFSRSTNLIRHRRTHTGEKPFKCLECEKAFSGKSDLISHQRTHTGERPYKCNKCEKSYRHRSAFIVHKRVHTGEKPYKCGACEKCFGQKSDLIVHQRVHTGEKPYKCLECMRSFTRSANLIRHQATHTHTFKCLEYEKSFNCSSDLIVHQRIHMEEKPHQWSACESGFLLGMDFVAQQKMRTQTEELHYKYTVCDKSFHQSSALLQHQTVHIGEKPFVCNVSEKGLELSPPHASEASQMS
B6: L3MBTL1, Q9Y468 (protein)
chain: MHLVAGDSPGSGPHLPATAFIIPASSATLGLPSSALDVSCFPREPIHVGAPEQVAGCEPVSATVLPQLSAGPASSSTSTVRLLEWTEAAAPPPGGGLRFRISEYKPLNMAGVEQPPSPELRQEGVTEYEDGGAPAGDGEAGPQQAEDHPQNPPEDPNQDPPEDDSTCQCQACGPHQAAGPDLGSSNDGCPQLFQERSVIVENSSGSTSASELLKPMKKRKRREYQSPSEEESEPEAMEKQEEGKDPEGQPTASTPESEEWSSSQPATGEKKECWSWESYLEEQKAITAPVSLFQDSQAVTHNKNGFKLGMKLEGIDPQHPSMYFILTVAEVCGYRLRLHFDGYSECHDFWVNANSPDIHPAGWFEKTGHKLQPPKGYKEEEFSWSQYLRSTRAQAAPKHLFVSQSHSPPPLGFQVGMKLEAVDRMNPSLVCVASVTDVVDSRFLVHFDNWDDTYDYWCDPSSPYIHPVGWCQKQGKPLTPPQDYPDPDNFCWEKYLEETGASAVPTWAFKVRPPHSFLVNMKLEAVDRRNPALIRVASVEDVEDHRIKIHFDGWSHGYDFWIDADHPDIHPAGWCSKTGHPLQPPLGPREPSSASPGGCPPLSYRSLPHTRTSKYSFHHRKCPTPGCDGSGHVTGKFTAHHCLSGCPLAERNQSRLKAELSDSEASARKKNLSGFSPRKKPRHHGRIGRPPKYRKIPQEDFQTLTPDVVHQSLFMSALSAHPDRSLSVCWEQHCKLLPGVAGISASTVAKWTIDEVFGFVQTLTGCEDQARLFKDEARIVRVTHVSGKTLVWTVAQLGDLVCSDHLQEGKGILETGVHSLLCSLPTHLLAKLSFASDSQY

The assay addresses nucleoprotein N of Crimean-Congo hemorrhagic fever virus. Nature of the assay: AlphaScreen luminescence signal relative to Venus negative control (fold); higher = stronger binding to CCHFV N. The method, then: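 AlphaScreen binding of cell-free made, FLAG-GST-tagged human transcription factors and regulators (crude translation products) to biotinylated N protein; signal as fold of the FLAG-GST-Venus control. One pass.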
For the molecule B1, the AlphaScreen luminescence signal stood at 1.49. The molecule B2 came in with an AlphaScreen luminescence signal of 2.33. Turning to B3, the AlphaScreen luminescence signal was 4.42. Molecule B4 had an AlphaScreen luminescence signal of 8.42. The molecule B5 displayed an AlphaScreen luminescence signal of 3.12.

In turn, B6 returned an AlphaScreen luminescence signal of 1.49.

For the origin of these results see the supplement of paper PMC12423691.
